# Test results taken from PubChem BioAssay AID1865 (National Center for Advancing Translational Sciences (NCATS), 2009).
# Hit rate of the full screen: of about 280,000 compounds, about 540 (0.19%) were called active. Inconclusive means that the source gave no clear call. Such entries were picked first, then a sample of the others. Calls come from the whole dose curve; as a rule, active = well fitted activation curve with a large enough effect; inconclusive = small, poorly fitted or top-dose-only effect; inactive = flat fitted curve, though single readings scatter. Where the call is inconclusive, the potency comes from a doubtful curve fit.
# Experiment: Quantitative High-Throughput Screen for Regulators of Epigenetic Control; note: nearly all actives have a fitted effect of over 60% in size; for GFP activation: % of control where 0% means no effect
# Settings: murine LDR cells, GFP reporter derepression, 30 h; GFP activation: at 53.9 µM (top of the series)
# How it was run: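 Derepression of a silenced CMV-GFP reporter in murine LDR cells is scored by enumerating GFP-positive cells with a laser-scanning microplate cytometer after 30 hours of treatment at 37 C.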
# Potency is the fitted concentration of half-maximal effect; tags give direction and shape of the fitted curve.
SMILES,GFP activation,Potency
CCC(Sc1nc(-c2ccccc2)c(C#N)c(=O)[nH]1)C(=O)Nc1cc(C)on1 (configuration not stated),inactive: -1.01%,
CCOc1ccc(-n2cc(C(=O)Nc3ccc(Cl)cn3)c3cc(OC)c(OC)cc3c2=O)cc1,,"inconclusive: 31.6 µM [activator, single point]"
O=C(Nc1ccc(F)cc1F)c1ccc2c(c1)CCN2S(=O)(=O)c1ccc(Cl)cc1,inactive: -2.96%,
CC1=NN(c2ccccc2)C(=O)/C1=C\c1cc(C)n(C)c1C,,"inconclusive: 35.5 µM [activator, single point]"
COc1ccccc1-c1cc2nc(C)c(CCC(=O)NCCc3ccc(SC)cc3)c(C)n2n1,inactive: -1.1%,
COCC(C)N=C1NN=C(c2cc(C)n(Cc3ccccc3Cl)c2C)CS1 (configuration not stated),inactive: -2.45%,
O=C(/C=C/c1cn(CC(O)CN2CCCCCC2)c2ccccc12)c1cccs1 (configuration not stated),,"inconclusive: 31.6 µM [activator, single point]"
Cc1cc(C)cc(NC(=O)c2oc3ccc4c(c3c2C)C(=O)CC(C)(C)O4)c1,,"inconclusive: 31.6 µM [activator, single point]"
O=C1C2=CC[C@H]3C(=O)N(C[C@@H]4CCCO4)C(=O)[C@@H]3[C@@H]2[C@H](O)[C@@H]2O[C@H]12,,"inconclusive: 5.62 µM [activator, single point]"
CCN1CCN(CCNC(=O)C2CCCN(Cc3nc(-c4cccc(Cl)c4)oc3C)C2)CC1 (configuration not stated),inactive: 1.16%,
Cc1ccc(Cn2c(/C=C/c3ccco3)nc3ccccc32)cc1,,"inconclusive: 28.2 µM [activator, single point]"
O=C(Cn1cnc2onc(-c3ccc(F)cc3)c2c1=O)Nc1cccc(C(F)(F)F)c1,,"inconclusive: 22.4 µM [activator, single point]"
N#C/C(=C(/O)COC(=O)COc1ccc(Cl)cc1)c1nc2ccccc2[nH]1,,"inconclusive: 35.5 µM [activator, single point]"
Cc1nc2cc(NC(=O)CSc3nc4c(C)cccc4cc3C#N)ccc2s1,,"inconclusive: 31.6 µM [activator, single point]"
CCOC(=O)c1ccc(NC(=O)CSc2nc(-c3ccc(OC)cc3)cc(C(F)(F)F)c2C#N)cc1,,"inconclusive: 5.62 µM [activator, single point]"
COc1ccc(OC)c(NC(=O)Cn2c(=O)n(-c3cccc(C)c3)c(=O)c3c2c2cc(C)ccc2n3C)c1,,"inconclusive: 20 µM [activator, single point]"
NC(=S)c1ccc[n+]([C@@H]2O[C@@H](COP(=O)([O-])OP(=O)(O)OC[C@H]3O[C@@H](n4cnc5c(N)ncnc54)[C@H](OP(=O)(O)O)[C@H]3O)C(O)C2O)c1 (some centres not stated),inactive: 4.86%,
COC(=O)CCN(C(=O)C1C2CC3CC(C2)CC1C3)c1ccccn1 (configuration not stated),,"inconclusive: 6.31 µM [activator, single point]"
CC(=O)Cc1cc(O)c2ccccc2c1OC(=O)c1ccccc1,,"inconclusive: 17.8 µM [activator, single point]"
COc1c(O)c(O)cc2c1oc1c3cc(C)ccc3oc(=O)c21,,"inconclusive: 35.5 µM [activator, single point]"
COc1ccc(CCNC(=O)CSc2cccc3cccnc23)cc1OC,,"inconclusive: 28.2 µM [activator, single point]"

SMILES,GFP activation,Potency
COc1ccccc1CNCCCCCCNCCCCCCCCNCCCCCCNCc1ccccc1OC,,inactive
COc1ccc(S(=O)(=O)Nc2cc(Sc3ncn[nH]3)c(O)c3ccccc23)cc1,,"inconclusive: 20 µM [activator, single point]"
CC1/C=C/C=C/C=C/C=C/C=C/C=C/C=C/C(OC2OC(C)C(O)C(N)C2O)CC2O[C@@](O)(CC(O)CC(O)C(O)CCC(O)CC(O)CC(=O)OC(C)[C@H](C)C1O)CC(O)C2C(=O)O (some centres not stated),inactive: 0%,
Oc1ccc(Cl)cc1C1=NNC(c2cccs2)C1 (configuration not stated),inactive: 1.05%,
COC(=O)c1ccc(CNC(=O)COC(=O)CC23CC4CC(CC(Br)(C4)C2)C3)cc1,,"inconclusive: 5.62 µM [activator, single point]"
CC(=O)OCCCNc1cc(SCc2ccco2)c2nonc2c1[N+](=O)[O-],,"inconclusive: 31.6 µM [activator, single point]"
Cc1ccc(-c2ccc(=O)n(CC(=O)NCCc3ccc(Cl)cc3)n2)cc1,inactive: 0.696%,
CCCNC(=O)Cn1c(=O)/c(=C\c2ccc(-c3ccc([N+](=O)[O-])cc3)o2)s/c1=C\C(=O)C(C)(C)C,,active: 0.199 µM
COc1ccc2c(C=Nc3c(C)n(C)n(-c4ccccc4)c3=O)c(O)n(Cc3ccco3)c(=O)c2c1,,"inconclusive: 31.6 µM [activator, single point]"
Nc1nc2ncc(=O)[nH]c2c(=O)[nH]1,inactive: 2.69%,
Oc1[nH]c2ccccc2c1N=Nc1ccccc1F,,"inconclusive: 31.6 µM [activator, single point]"
Cc1ccc(NC(=O)Cn2nnc(C(=O)NCc3ccco3)c2N)cc1,,"inconclusive: 35.5 µM [activator, single point]"
O=C(CC1(O)C(=O)Nc2ccccc21)c1ccccc1O (configuration not stated),,"inconclusive: 4.47 µM [activator, single point]"
S=c1[nH]nc(Cn2cnc3ccccc32)n1-c1ccccc1Cl,inactive: -3.28%,
COc1ccc(-c2coc3cc(O)cc(O)c3c2=O)cc1,,inactive
CC(=O)OCCN(C)c1cc(SC(C)C)c2nonc2c1[N+](=O)[O-],,"inconclusive: 31.6 µM [activator, single point]"
Cc1cc(Nc2cc(Cl)ccc2C)n2nc(-c3ccccc3)nc2n1,,active: 25.1 µM
CCN(CC)CCC(=O)Nc1cccc2c1C(=O)c1ccccc1C2=O,,"inconclusive: 25.1 µM [activator, single point]"
COc1ccc(/C=C2\N=C(C)N(c3ccc4ccccc4c3)C2=O)cc1OC,,"inconclusive: 35.5 µM [activator, single point]"
CCCc1cc(=O)[nH]c(Nc2cc(Cl)cc(Cl)c2)n1,,"inconclusive: 11.2 µM [activator, partial curve]"
CCOC(=O)CSc1nc2cc(C)cc(C)c2cc1C#N,,"inconclusive: 15.8 µM [activator, single point]"
